Data published in paper PMC4336329 (PLoS ONE, 2015).
Screen size: about 310,000 compounds; about 14,000 (4.5%) showed an effect of 50% or more. The effect is printed as a negative number. Some of the results follow.

target: human ether-à-go-go-related gene (hERG) potassium channel (human, UniProt Q12809); test: primary screen, population patch clamp on CHO cells stably expressing hERG
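Note: peak tail current of the secondary pulse compared with the same well before compound.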

human ether-à-go-go-related gene (hERG) potassium channel, sequence (Q12809 whole entry, looked up): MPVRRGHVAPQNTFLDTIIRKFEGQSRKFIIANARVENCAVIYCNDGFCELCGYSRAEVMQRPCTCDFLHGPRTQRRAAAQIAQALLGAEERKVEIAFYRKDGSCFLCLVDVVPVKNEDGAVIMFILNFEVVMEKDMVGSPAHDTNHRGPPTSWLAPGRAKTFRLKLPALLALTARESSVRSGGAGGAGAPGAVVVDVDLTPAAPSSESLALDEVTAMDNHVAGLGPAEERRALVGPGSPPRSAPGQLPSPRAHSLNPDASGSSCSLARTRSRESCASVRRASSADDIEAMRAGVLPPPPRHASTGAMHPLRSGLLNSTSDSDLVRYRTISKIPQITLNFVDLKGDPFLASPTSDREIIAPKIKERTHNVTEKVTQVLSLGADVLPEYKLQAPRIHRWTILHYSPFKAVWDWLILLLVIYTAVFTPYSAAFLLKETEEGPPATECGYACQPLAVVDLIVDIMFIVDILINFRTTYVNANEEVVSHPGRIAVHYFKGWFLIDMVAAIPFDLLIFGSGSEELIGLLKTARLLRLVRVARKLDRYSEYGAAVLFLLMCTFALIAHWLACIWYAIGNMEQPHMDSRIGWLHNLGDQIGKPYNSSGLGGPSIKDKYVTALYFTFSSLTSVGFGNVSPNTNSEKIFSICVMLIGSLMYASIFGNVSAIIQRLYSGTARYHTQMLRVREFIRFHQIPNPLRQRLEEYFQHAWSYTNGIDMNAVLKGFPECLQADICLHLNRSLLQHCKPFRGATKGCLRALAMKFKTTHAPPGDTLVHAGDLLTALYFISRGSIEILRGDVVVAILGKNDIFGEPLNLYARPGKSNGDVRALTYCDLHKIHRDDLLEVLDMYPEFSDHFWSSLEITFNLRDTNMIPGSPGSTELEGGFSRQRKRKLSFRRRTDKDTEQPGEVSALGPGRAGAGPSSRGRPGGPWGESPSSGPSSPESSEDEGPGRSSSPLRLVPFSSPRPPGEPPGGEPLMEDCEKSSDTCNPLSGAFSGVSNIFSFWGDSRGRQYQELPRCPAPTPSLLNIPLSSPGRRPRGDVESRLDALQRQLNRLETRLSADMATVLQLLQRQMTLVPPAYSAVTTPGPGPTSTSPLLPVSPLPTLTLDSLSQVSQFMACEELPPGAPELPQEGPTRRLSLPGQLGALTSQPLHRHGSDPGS

| SMILES | hERG current change (%, negative = inhibition) at 10uM |
| --- | --- |
| CCN=C1SC(C(=O)Nc2cccc(C)c2)CC(=O)N1CC (stereo not drawn) | -15.1% |
| CCOP(=O)(OCC)c1cc(CC)ccc1O | 5.51% |
| Cc1nnc(SCc2cc(=O)[nH]c(N3CCN(Cc4ccccc4)CC3)n2)s1 | -18.2% |
| Cc1cccc(C)c1NC(=O)C1CCCN1S(=O)(=O)c1ccc(-c2ccc(=O)[nH]n2)s1 (stereo not drawn) | -68.2% |
| O=C(NC(=S)Nc1ccccc1N1CCCC1)c1cccc(F)c1 | 23% |
| CCOC(=O)/C=C/c1ccc(C(F)(F)F)cc1S(=O)(=O)NC(C)(C)C | -18.6% |
| O=C(NC1CCCCCC1)C1CCN(c2nc3ccccc3o2)CC1 | -6.43% |
| COc1ccc(CCNC(=O)CSc2nc(N)c3c(C)c(C)oc3n2)cc1OC | 1.46% |
| COc1cc(C(=O)Nc2ccc3nc(N4CCN(C)CC4)cc(C)c3c2)cc(OC)c1OC | -38.7% |
| Br.COc1ccc(OCC(=O)NN2Cc3ccccc3C2=N)cc1 | -18.1% |
| CN(NC(=O)NN)c1ncc(C(F)(F)F)cc1Cl | -3.56% |
| COc1ccc(CCNC(=O)c2cnc(C)cn2)cc1 | 17.9% |
| COc1ccccc1NC(=O)N1CCN(CCc2ccccc2)CC1 | -19% |
| COc1ccc(OC)c(Nc2nc(N)c([N+](=O)[O-])c(NC3CCCCC3)n2)c1 | 11.3% |
| COc1ccc(C2(c3ccc(O)cc3O)CC(c3ccccc3Cl)NC(=S)N2)cc1 (stereo not drawn) | -15% |
| CCN(C(=O)COC(=O)CNS(=O)(=O)c1ccc(SC)c([N+](=O)[O-])c1)C1CCCCC1 | -33.6% |
| O=Cc1ccc(OCc2nnsc2Cl)cc1 | 6.42% |
| Cc1ccc(NC(=O)CSC2=Nc3ccccc3C3CC=NN23)c(C)c1 (stereo not drawn) | -6.34% |
| CCNC(=O)COC(=O)CCC(=O)c1cccs1 | 12.5% |
| Cc1cccc(N(CC(=O)NCCc2ccccc2)C(=O)CCC(=O)Nc2ccccn2)c1C | -18.3% |
| COC(=O)c1c(NC(=O)CN2C(=O)C(=O)N(CC(C)C)C2=O)sc2c1CCCCC2 | 6.61% |
| O=C(NCC1CCCO1)c1cn(Cc2ccccc2)nc1-c1ccc(Cl)cc1 (stereo not drawn) | -2.14% |
| CCS(=O)(=O)N1Cc2ccccc2CC1C(=O)Nc1ccc(NC(C)=O)cc1 (stereo not drawn) | 4.97% |

| SMILES | hERG current change (%, negative = inhibition) at 10uM |
| --- | --- |
| Cc1cccc(/C=C2\CS/C(=C\c3cccc(C)c3)C2=O)c1 | 0.505% |
| CCOC(=O)N1CCN(c2c(NCCOC)c(=O)c2=O)CC1 | 6.96% |
| O=C(OCc1ccccc1)c1ccccc1 | -1.94% |
| COCCNC(=O)C1CCN(C(=O)C2CC(=O)N(c3ccc(C)cc3)C2)CC1 (stereo not drawn) | 7.39% |
| CCN(CC)c1ncnc2c1cnn2Cc1ccc(C)cc1 | -8.2% |
| Cc1ccc(C)c(NC(=S)N2CCN(S(=O)(=O)c3ccccc3)CC2)c1 | 15.4% |
| O=C(c1ccco1)N1N=C(c2ccc3nccnc3c2)CC1c1ccccc1 (stereo not drawn) | -22.3% |
| CN1CCN(Cc2c(C(=O)N3CCc4ccccc4C3)nc3ccc(Cl)cn23)CC1 | -51.8% |
| CCC(C)NC(=O)c1cnn2c1NC(c1ccc3c(c1)OCO3)CC2C(F)(F)F (stereo not drawn) | -1.5% |
| COc1ccc(C(=O)OCC(=O)NC2CC2)cc1S(=O)(=O)N(C)Cc1ccccc1 | -53.8% |
| CC1CCc2sc(C(=O)N/N=C/C3CCCCC3)cc2C1 (stereo not drawn) | 2.4% |
| COc1ccc(/C=C/C(=O)NCCCc2ccccc2)cc1 | -46.8% |
| CCc1c(C)nc(N)n2c(SCC(=O)Nc3ccccc3)nnc12 | 12.5% |
| CCOc1ccc(C(Nc2ccc(C)cc2)P2(=O)OCCCO2)cc1 (stereo not drawn) | -13.3% |
| Cc1cccc(/C(N)=N/OC(=O)c2ccoc2C)c1 | 6.1% |
| CCOC(=O)C1CCN(S(=O)(=O)c2ccc(C(=O)OC)cc2)CC1 | -1.7% |
| COc1ccc(NC(=O)C(=O)NCC2CCCN2S(=O)(=O)c2cc(C)ccc2C)cc1 (stereo not drawn) | -25.1% |
| COc1ccccc1C(=O)NNC(=O)C1CC=CCC1 (stereo not drawn) | 18.7% |
| O=C(NCCCC1CCCC1)C1CCC(=O)N(Cc2cccc(F)c2)C1 (stereo not drawn) | -15.2% |
| Cn1c(SCC(=O)N/N=C/c2ccccn2)nnc1-c1ccccc1 | 2.72% |
| COC(=O)c1ccc(NC(=O)CNC(=O)C2CCCCC2)cc1 | 4.19% |
| Cn1c(=O)[nH]c(=O)c2c1nc(NCCCn1ccnc1)n2CCOc1ccccc1 | -4.75% |
